Data reported in paper PMC12370622.
No constants are given. Whether binding was seen depends on the method and setting. Binding seen in cells or lysates may run through a third protein. Some entries that bind do so weakly or less than the wild type. Where a sequence is shown, tags or fusion partners need not be part of it. Values belong to the binder of their own block, whether it stands above or below them.

How the values were obtained:
Test in all cases: pull-down; lysates of co-transfected N2a cells in 1% Triton lysis buffer; HB-tagged DHX8 or its fragments captured on Streptavidin Sepharose beads, 2 h at 4°C, washed four times; SIDT2 detected by immunoblotting
[1] = target: T1, human DHX8 with 3 x HA-biotin (HB) tag, full-length (WT) (human) (UniProt Q14562)
T1 sequence: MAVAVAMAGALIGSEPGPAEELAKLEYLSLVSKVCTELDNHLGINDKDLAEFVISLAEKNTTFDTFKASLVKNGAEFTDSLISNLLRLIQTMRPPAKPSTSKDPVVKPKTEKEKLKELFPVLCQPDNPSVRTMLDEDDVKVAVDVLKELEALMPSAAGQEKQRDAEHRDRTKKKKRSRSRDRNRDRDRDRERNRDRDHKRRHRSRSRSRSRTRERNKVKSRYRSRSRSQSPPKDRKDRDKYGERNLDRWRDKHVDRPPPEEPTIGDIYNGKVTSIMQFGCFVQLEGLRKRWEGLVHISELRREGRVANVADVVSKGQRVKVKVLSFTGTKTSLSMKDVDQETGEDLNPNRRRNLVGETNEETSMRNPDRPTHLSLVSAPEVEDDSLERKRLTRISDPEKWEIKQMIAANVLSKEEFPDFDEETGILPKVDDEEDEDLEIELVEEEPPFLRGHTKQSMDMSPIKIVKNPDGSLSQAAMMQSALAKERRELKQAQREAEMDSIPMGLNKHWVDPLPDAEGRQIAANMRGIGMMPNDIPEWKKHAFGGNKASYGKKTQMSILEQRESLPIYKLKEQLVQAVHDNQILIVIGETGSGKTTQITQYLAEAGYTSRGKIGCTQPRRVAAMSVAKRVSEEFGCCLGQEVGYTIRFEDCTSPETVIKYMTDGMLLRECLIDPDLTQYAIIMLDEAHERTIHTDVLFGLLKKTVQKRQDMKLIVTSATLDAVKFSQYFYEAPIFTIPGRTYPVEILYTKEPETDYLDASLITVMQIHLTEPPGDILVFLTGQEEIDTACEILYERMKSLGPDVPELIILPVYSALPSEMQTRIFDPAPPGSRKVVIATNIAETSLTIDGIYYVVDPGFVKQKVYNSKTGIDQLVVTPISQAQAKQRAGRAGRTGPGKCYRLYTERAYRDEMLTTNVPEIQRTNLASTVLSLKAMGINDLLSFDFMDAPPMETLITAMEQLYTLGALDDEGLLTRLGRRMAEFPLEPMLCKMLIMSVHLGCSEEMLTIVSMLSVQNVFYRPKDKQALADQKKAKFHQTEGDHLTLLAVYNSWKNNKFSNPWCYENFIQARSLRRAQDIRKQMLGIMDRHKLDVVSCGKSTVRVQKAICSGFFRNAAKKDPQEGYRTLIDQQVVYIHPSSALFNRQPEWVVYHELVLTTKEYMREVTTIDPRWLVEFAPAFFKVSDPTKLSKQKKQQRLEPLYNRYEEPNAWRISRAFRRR

[2] = target: T2, DHX8 RecA fragment (residues 567-916) with HB tag (human) (UniProt Q14562)
T2 sequence: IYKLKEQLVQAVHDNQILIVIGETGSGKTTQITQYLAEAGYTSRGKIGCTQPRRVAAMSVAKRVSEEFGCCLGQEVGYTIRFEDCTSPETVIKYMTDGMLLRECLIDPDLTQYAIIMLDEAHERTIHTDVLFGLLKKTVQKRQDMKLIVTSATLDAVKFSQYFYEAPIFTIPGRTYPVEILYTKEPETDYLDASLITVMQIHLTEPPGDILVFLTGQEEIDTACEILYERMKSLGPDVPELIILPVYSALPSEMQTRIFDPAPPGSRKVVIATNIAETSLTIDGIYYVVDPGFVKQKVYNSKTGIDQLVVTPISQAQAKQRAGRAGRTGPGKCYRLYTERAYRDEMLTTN

[3] = target: T3, DHX8 WRO fragment (residues 917-1220) with HB tag (human) (UniProt Q14562)
T3 sequence: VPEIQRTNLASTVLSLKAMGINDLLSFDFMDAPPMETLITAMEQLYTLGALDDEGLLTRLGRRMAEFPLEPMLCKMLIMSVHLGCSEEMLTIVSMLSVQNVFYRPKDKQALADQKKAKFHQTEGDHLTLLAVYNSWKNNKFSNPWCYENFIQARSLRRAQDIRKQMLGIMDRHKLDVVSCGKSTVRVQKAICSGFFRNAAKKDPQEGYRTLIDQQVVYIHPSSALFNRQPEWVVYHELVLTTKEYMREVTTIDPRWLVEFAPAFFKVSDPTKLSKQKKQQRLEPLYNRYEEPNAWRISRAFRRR

[4] = target: T4, DHX8 N-terminal fragment (residues 1-566) with HB tag (human) (UniProt Q14562)
T4 sequence: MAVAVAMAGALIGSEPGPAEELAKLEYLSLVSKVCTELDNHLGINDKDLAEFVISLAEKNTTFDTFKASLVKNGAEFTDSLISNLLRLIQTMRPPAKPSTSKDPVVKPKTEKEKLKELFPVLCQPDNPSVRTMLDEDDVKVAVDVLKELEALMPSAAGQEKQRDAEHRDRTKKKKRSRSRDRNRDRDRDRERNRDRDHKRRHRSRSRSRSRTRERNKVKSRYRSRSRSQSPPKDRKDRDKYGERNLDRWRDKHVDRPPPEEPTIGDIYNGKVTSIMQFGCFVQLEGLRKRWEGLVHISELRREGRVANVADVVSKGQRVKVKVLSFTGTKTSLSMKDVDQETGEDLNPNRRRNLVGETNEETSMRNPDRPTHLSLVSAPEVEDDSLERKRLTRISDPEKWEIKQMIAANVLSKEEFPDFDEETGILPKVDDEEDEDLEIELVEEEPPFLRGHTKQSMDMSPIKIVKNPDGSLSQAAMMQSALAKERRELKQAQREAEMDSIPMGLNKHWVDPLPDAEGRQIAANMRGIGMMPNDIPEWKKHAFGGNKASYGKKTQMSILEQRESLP

[5] = target: T5, DHX8 C-terminal fragment (residues 567-1220) with HB tag (human) (UniProt Q14562)
T5 sequence: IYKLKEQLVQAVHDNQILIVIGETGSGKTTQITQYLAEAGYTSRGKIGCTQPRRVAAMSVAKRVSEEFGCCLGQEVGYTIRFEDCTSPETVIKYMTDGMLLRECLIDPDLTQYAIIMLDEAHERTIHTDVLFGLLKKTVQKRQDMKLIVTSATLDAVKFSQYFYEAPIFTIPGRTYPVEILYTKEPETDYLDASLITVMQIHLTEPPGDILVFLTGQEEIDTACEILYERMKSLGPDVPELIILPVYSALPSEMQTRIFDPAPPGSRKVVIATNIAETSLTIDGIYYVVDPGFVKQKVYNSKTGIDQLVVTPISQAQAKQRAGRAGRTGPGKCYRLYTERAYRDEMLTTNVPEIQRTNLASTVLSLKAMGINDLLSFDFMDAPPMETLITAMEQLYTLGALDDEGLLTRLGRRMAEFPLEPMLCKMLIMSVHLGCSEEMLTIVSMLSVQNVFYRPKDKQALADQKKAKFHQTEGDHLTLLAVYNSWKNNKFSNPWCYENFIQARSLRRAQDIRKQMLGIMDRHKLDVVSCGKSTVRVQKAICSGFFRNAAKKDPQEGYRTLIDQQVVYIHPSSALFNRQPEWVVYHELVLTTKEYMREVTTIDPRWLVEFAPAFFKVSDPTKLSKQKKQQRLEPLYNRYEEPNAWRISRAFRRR

- binding [1]: binds
B1: SIDT2 (overexpressed in N2a cells, Fig. 4H) (protein, UniProt Q8CIF6 19-832)
chain: HLGALGPKNVSQKDAEFERTYADDVNSELVNIYTFNHTVTRNRTEGVRVSVNVLNKQKGAPLLFVVRQKEAVVSFQVPLILRGLYQRKYLYQKVERTLCQPPTKNESEIQFFYVDVSTLSPVNTTYQLRVNRVDNFVLRTGELFTFNTTAAQPQYFKYEFPDGVDSVIVKVTSKKAFPCSVISIQDVLCPVYDLDNNVAFIGMYQTMTKKAAITVQRKDFPSNSFYVVVVVKTEDQACGGSLPFYPFVEDEPVDQGHRQKTLSVLVSQAVTSEAYVGGMLFCLGIFLSFYLLTVLLACWENWRQRKKTLLLAIDRACPESGHARVLADSFPGSAPYEGYNYGSFENGSGSTDGLVESAGSGDLSYSYQDRSFDAVGPRPRLDSMSSVEEDDYDTLTDIDSDKNVIRTKQYLCVADLARKDKRVLRKKYQIYFWNIATIAVFYALPVVQLVITYQTVVNVTGNQDICYYNFLCAHPLGNLSAFNNILSNLGYILLGLLFLLIILQREINHNRALLRNDLYALECGIPKHFGLFYAMGTALMMEGLLSACYHVCPNYTNFQFDTSFMYMIAGLCMLKLYQKRHPDINASAYSAYACLAIVIFFSVLGVVFGKGNTAFWIVFSVIHIISTLLLSTQLYYMGRWKLDSGIFRRILHVLYTDCIRQCSGPLYTDRMVLLVMGNIINWSLAAYGLIMRPNDFASYLLAIGICNLLLYFAFYIIMKLRSGERIKLIPLLCIVCTSVVWGFALFFFFQGLSTWQKTPAESREHNRDCILLDFFDDHDIWHFLSSIAMFGSFLVLLTLDDDLDTVQRDKIYVF

- binding [2]: binds
- binding [3]: binds
- binding [4]: no binding
- binding [5]: binds
B2: FLAG-tagged mouse SIDT2 (protein, UniProt Q8CIF6 19-832)
chain: B1 chain
